Source: PubChem BioAssay AID1508623 (National Center for Advancing Translational Sciences (NCATS), 2021)
About 450 (0.94%) of roughly 48,000 compounds were called active. Inconclusive results (about 19%) are left out. The call rests on the fitted dose curve; in most records, active means well fitted inhibition curve with a large enough effect; inconclusive means small, poorly fitted or top-dose-only effect; inactive means no such curve, though single readings can be large or run the other way. Some of the results follow.

Experiment: Primary qHTS for Identification of Small Molecule Inhibitors of Huntingtin Promoter Activity; further: nearly all actives have a fitted effect of over 50% in size
Settings: HEK293 HTT promoter firefly luciferase reporter (activity 0% = vehicle and -100% = no light), 24 h; series mostly up to 57.5 µM; activity change, negative = inhibition: at the top concentration
Procedure, shortened: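 Firefly luciferase readout (Dual-Glo, 10 min RT) after 24 h, 37 °C compound exposure (final up to 57.5 uM) of HEK293 reporter cells cultured 24 h beforehand; PTC124 at 50 uM final as control inhibitor; activity scaled vehicle 0%, zero RLU -100%.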
Potency means the concentration at half of the fitted maximal effect.

Row | Compound | activity change, negative = inhibition | Potency
1 | CC1CCCN(c2csc3ccc(F)cc3c2=O)C1 (stereo not given) | inactive: 61.1% | –
2 | COc1ccc(OC(=O)c2nc(SCc3ccc(C)cc3)ncc2Cl)cc1 | inactive: 0.461% | –
3 | CCCOc1ccc(C(=O)Nc2cccc(-c3nc4ccccc4[nH]3)c2)cc1 | inactive: -0.0878% | –
4 | Cc1ccc(-c2nc(C)c(CCNC(=O)C(=O)Nc3ccc4c(c3)OCCO4)s2)cc1 | inactive: -5.58% | –
5 | CCC(CC)C(=O)Nc1cccc(-c2nc3cccnc3s2)c1C | inactive: -14% | –
6 | COc1ccc(-n2nc3ccc(NC(=O)c4cc5ccccc5o4)cc3n2)cc1Cl | inactive: -5.97% | –
7 | CCc1ccc(-c2nn(CC(=O)NC3CCCC3)c3c2cnc2ccc(C)cc23)cc1 | inactive: -16.4% | –
8 | CC1(C)O[C@H]2[C@@H](O1)[C@@H](C(=O)Nc1ccccc1O)O[C@@H]1OC(C)(C)O[C@@H]12 | inactive: -14.5% | –
9 | CCOc1cc(C2C(C(=O)OC)=C(C)NC3=C2C(=O)c2ccccc23)ccc1O (stereo not given) | inactive: -20.7% | –
10 | FC(F)(F)c1ccccc1-n1ccnc1 | inactive: 3.76% | –
11 | Cc1cccc(/C=C/c2onc(C)c2S(=O)(=O)N2CCC(C(=O)N3CCC(C)CC3)CC2)c1 | inactive: -3.69% | –
12 | Cc1ccc(C(C)C)c(OCC(=O)Nc2c(C(=O)c3ccccc3)oc3ccccc23)c1 | inactive: 13% | –
13 | Cc1ccc(NC(=O)c2sc3ccccc3c2Cl)cc1 | inactive: 62.8% | –
14 | Cc1ccc(CN2C(=O)c3ccccc3C2C(=O)NC2CCCCCC2)cc1 (stereo not given) | inactive: 6.6% | –
15 | CCOc1ccccc1NC(=O)c1c(C)cc(C)nc1SCC(=O)c1cccc(OC)c1 | inactive: -27.8% | –
16 | COc1ccc(CNC(=O)CCn2nc(C)c3c(C)n(-c4ccccc4)nc3c2=O)cc1OC | inactive: -6.51% | –
17 | Cc1cccn2c(=O)c(/C=C(\C#N)c3nc4ccccc4n3C)c(Oc3ccc(Br)cc3)nc12 | inactive: -3.21% | –
18 | Cc1ccc(NC(=O)CCCn2nc(C)c3c(C)n(-c4ccccc4)nc3c2=O)cc1Cl | inactive: -3.54% | –
19 | O=C(CN1CCN(c2ccc(Cl)cc2)CC1)Nc1ccc(F)cc1F | inactive: 18.7% | –
20 | CCOc1ccc(N(CC(=O)Nc2ccc(F)cc2F)S(=O)(=O)c2c(C)[nH]c(=O)[nH]c2=O)cc1 | inactive: -21.2% [at 11.5 µM] | –

Row | Compound | activity change, negative = inhibition | Potency
21 | CN1C(=O)c2ccccc2Sc2ccc(NC(=O)Nc3ccccc3F)cc21 | inactive: -1.7% | –
22 | COc1ccc(CN(CCC(c2ccc3c(c2)OCO3)c2ccccc2OC)C(C)=O)cc1 (stereo not given) | inactive: -16.5% | –
23 | CCOCCCn1c(=N)c(S(=O)(=O)c2ccc(C)cc2)cc2c(=O)n3cccc(C)c3nc21 | inactive: -1.48% | –
24 | O=C(NCC(c1ccc2c(c1)OCO2)N1CCN(c2ccccc2)CC1)c1ccccc1F (stereo not given) | inactive: 25.1% | –
25 | Cc1ccc(-c2cc(N)n3nc(-c4ccc(C)cc4)cc3n2)cc1 | inactive: -11.2% | –
26 | CCOC(=O)c1noc2ncnc(N(CCC(=O)OC)c3ccccc3)c12 | inactive: -27.5% | –
27 | CCOC(=O)c1noc2ncnc(Nc3ccc(C)c(F)c3)c12 | inactive: 3.61% | –
28 | CN1CCN(CCCNC(=O)Cn2c(-c3cccs3)cc3ccccc32)CC1 | inactive: -18.1% | –
29 | Cc1ccc2c(c1)sc1nc(=O)n(-c3ccc(Cl)cc3)c(=O)n12 | inactive: -5.45% | –
30 | O=C(Cn1cc(SCc2ccc(C(F)(F)F)cc2)c2ccccc21)N1CCCCC1 | inactive: -28.3% | –
31 | CCc1cccc2c(-c3ccccc3)nc(SCC(=O)Nc3ccccc3)nc12 | inactive: 5.13% | –
32 | COc1ccc2c(CNCc3ccc(Cl)cc3)c(C(=O)O)n(Cc3ccccc3C)c2c1 | inactive: -23.9% | –
33 | COc1ccc(-c2cc(C)no2)cc1S(=O)(=O)NCc1ccc(OC(C)C)cc1 | inactive: -28.4% | –
34 | CC(=O)c1ccc(N2CCN(c3nc4c(S(=O)(=O)c5ccccc5)nnn4c4ccc(Cl)cc34)CC2)cc1 | inactive: -5.3% | –
35 | Cc1cc(Br)ccc1NC(=O)c1cc2c(=O)n(C)c3cc(Cl)ccc3c2s1 | inactive: -5.04% | –
36 | O=C(NC1CC(=O)N(c2ccccc2)C1)C1CCCCC1 (stereo not given) | inactive: -24% | –
37 | COc1ccc(NC(=O)C2=C(C)Nc3nc(SCc4ccccc4C)nn3C2c2ccc(Br)cc2)cc1 (stereo not given) | inactive: -12% | –
38 | Cc1cccc(NC(=O)C2CCN(S(=O)(=O)c3cccc4nsnc34)CC2)c1C | inactive: -0.26% | –
39 | NCCCC[C@H](N[C@@H](CCc1ccccc1)C(=O)O)C(=O)N1CCC[C@H]1C(=O)O | inactive: 11.7% | –
40 | CN(C(=O)c1cc(-c2ccccc2O)on1)c1ccccc1 | inactive: -12.6% [at 11.5 µM] | –

Row | Compound | activity change, negative = inhibition | Potency
41 | Cc1cc(C)c2oc(C(=O)N(Cc3ccc(F)cc3)C3CCS(=O)(=O)C3)cc(=O)c2c1 (stereo not given) | inactive: -9.36% | –
42 | CSc1ccc(CCNc2ncnc3onc(C)c23)cc1 | – | active: 1000 nM
43 | CCOC(=O)c1c(C)oc2ccc(N(C(=O)Oc3ccccc3)S(=O)(=O)c3ccccc3)cc12 | inactive: 0.877% | –
44 | CCOc1ccc(/C=C(\C#N)c2nc(-c3cc4ccccc4oc3=O)cs2)c(OCC)c1 | inactive: 17.7% | –
45 | CCN1CCN(C(c2ccc(OC)cc2)c2c(O)cc(C)n(CCOC)c2=O)CC1 (stereo not given) | inactive: -6.93% | –
46 | COc1ccc(C(CNC(=O)COc2ccc(C)cc2)N2CCCCC2)cc1 (stereo not given) | inactive: -40.8% | –
47 | COc1ccccc1NC(=O)c1c(NCc2sccc2C)sc2c1CCCCC2 | inactive: -4.89% | –
48 | CN(C(=O)Cn1c(=O)n(CCCS(=O)(=O)C2CCCCC2)c(=O)c2ccccc21)c1ccccc1 | inactive: -14.1% | –
49 | COc1ccc2c(CNCc3ccc(C)o3)c(C(=O)O)n(Cc3ccccc3)c2c1 | inactive: -13.7% | –
50 | CCOc1cc(-c2nc(-c3ccc(-c4ccc(C)cc4)nc3OC)no2)cc(OCC)c1OCC | inactive: -12.3% | –
51 | Cc1cc(C)cc(N(CC(=O)Nc2cccc(C)c2C)S(=O)(=O)c2c(C)[nH]c(=O)[nH]c2=O)c1 | inactive: -16.3% [at 11.5 µM] | –
52 | COc1ccc(Cl)cc1NC(=O)Cn1c2ncccc2c(=O)n1-c1ccc(C)c(C)c1 | inactive: -6.82% | –
53 | COc1ccc(C2C=C(c3ccccc3)Nc3nc(NC(=O)c4ccc(C)cc4)nn32)cc1 (stereo not given) | inactive: -18.7% | –
54 | COC(=O)c1ccc(Cl)cc1NC(=O)N1CC(C)Oc2ccccc21 (stereo not given) | inactive: -5.21% | –
55 | Cc1cc(NS(=O)(=O)c2ccc(NC(=O)COc3ccc(Cl)cc3)cc2)nc(C)n1 | inactive: -11.6% | –
56 | Cc1ccc(NC(=O)Nc2nnc(N(C)Cc3ccccc3)s2)cc1 | inactive: -1.16% | –
57 | COc1ccccc1N1CCN(C(=O)Cn2ncc3c(=O)oc4ccccc4c32)CC1 | inactive: -4.07% | –
58 | CC(=O)Nc1cccc(NC(=O)Cn2cnc3c2c(=O)n(C)c(=O)n3C)c1 | inactive: -1.53% | –
59 | O=C(Nc1ccc(C(=O)OCc2cc(=O)n3nc(C4CC4)sc3n2)cc1)c1ccc(F)cc1 | inactive: -8.7% | –
60 | Cc1nc(N2CCCC2)c2c(C(=O)Nc3cccc(C)c3C)c(C)oc2n1 | inactive: -8.14% | –
